Measured values: PubChem BioAssay AID1159614 (National Center for Advancing Translational Sciences (NCATS), 2016)
The campaign covered roughly 45,000 compounds. About 65 (0.1%) were called active. Calls come from the whole dose curve; as a rule, active = well fitted activation curve with a large enough effect; inconclusive = small, poorly fitted or top-dose-only effect; inactive = no such curve, though single readings can be large or run the other way. The list shows a part of the results.

The compounds below were run against Galactocerebrosidase (Homo sapiens) (UniProt P54803) (assay: A Novel Cell-Based Assay to Identify Small Molecules for B -Galactocerebrosidase). Conditions: 145M-Twi-hGALC-G270D cells (Twitcher mouse brain line with human GALC G270D), HMU-beta-Gal fluorescence, 48 h; series mostly up to 57.5 µM; activation: at the top concentration.
Summary of the method: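 Brain-derived Twitcher mouse 145M-Twi cells stably expressing human GALC-G270D or wild-type GALC, treated live, then residual GALC activity read by fluorescence of HMU-b-Gal substrate (0.1 mM final) in citrate-phosphate buffer pH 5.2 with sodium taurocholate. Signal increase indicates enhancement.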
Note: 0% is about no effect; nearly all actives have a fitted effect of over 65% in size.

Chain of UniProt P54803 (P54803 whole entry, looked up): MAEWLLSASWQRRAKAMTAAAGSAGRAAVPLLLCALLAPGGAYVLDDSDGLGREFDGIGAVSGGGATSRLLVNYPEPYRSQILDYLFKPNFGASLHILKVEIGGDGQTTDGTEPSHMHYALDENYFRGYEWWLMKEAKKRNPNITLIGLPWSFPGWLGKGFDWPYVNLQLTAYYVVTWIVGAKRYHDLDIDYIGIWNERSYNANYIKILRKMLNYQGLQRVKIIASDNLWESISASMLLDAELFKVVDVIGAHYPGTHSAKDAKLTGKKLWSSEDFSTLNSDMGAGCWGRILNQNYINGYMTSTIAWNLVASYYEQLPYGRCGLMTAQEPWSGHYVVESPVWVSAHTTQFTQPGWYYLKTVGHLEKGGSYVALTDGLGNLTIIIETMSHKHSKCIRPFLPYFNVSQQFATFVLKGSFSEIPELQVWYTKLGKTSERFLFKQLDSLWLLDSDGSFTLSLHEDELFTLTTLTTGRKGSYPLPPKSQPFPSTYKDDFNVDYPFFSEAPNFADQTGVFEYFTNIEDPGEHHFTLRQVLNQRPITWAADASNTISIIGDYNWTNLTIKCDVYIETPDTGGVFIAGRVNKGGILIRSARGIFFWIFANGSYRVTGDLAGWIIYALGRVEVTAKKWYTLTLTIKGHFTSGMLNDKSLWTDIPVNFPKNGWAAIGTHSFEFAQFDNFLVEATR

activation, inactive:
COc1ccc(Cn2c(SCC(=O)Nc3ccc(OC)cc3)nc3ccccc32)cc1 7.7%
O=C(COCc1cc(-c2ccco2)on1)Nc1cccc(O)c1 -2.71%
COc1cc2ncnc(Nc3ccc(F)c(Cl)c3)c2cc1OCCCN1CCOCC1 -12.2%
COc1cc(/C=C/c2nc3cc(Cl)ccc3c(=O)n2-c2cccc(C(F)(F)F)c2)cc(OC)c1OC -3.27%
COc1cc(NC(=O)Nc2nnc(N3CCCCCC3)s2)cc(OC)c1 -4.48%
CC1CCCN(Cc2c(O)ccc3c(=O)c(Oc4ccc(C(C)(C)C)cc4)c(C(F)(F)F)oc23)C1 (configuration not stated) -6.1%
Cn1c(=O)c(=O)n(C)c2cc(S(=O)(=O)CCC(=O)Nc3cccc(C(F)(F)F)c3)ccc21 -6.63%
COc1cc(OC)c(N(C)C(=O)C2CCCN(c3ncnc4c3nc3n4CCCCC3)C2)cc1Cl (configuration not stated) -13.3%
CN(C)S(=O)(=O)c1ccc2c(c1)N(CC(=O)N1CCN(c3cccc(Cl)c3)CC1)CCS2 -25.1%
Cc1ccc(-c2nc3c(cnn3-c3ccccc3)c(=O)n2-c2cccc(Cl)c2)cc1 -10.4%
CCOc1ccc(NC(=O)[C@H]2O[C@@H]3OC(C)(C)O[C@@H]3[C@H]3OC(C)(C)O[C@H]32)cc1 -18.9%
Cc1cccc(NC(=O)CSc2nc(=O)n(Cc3ccco3)c3c2CCC3)c1C -7.22%
CN1CCC[C@@H]1CCO[C@](C)(c1ccccc1)c1ccc(Cl)cc1 -12.3%
CCOc1ccccc1CNC(=O)c1cn(-c2ccc(OC)cc2)c(=O)c2ccccc12 1.93%
COc1cccc(CNC(=O)CSc2n[nH]c(-c3ccccc3Cl)n2)c1OC -9.51%
COc1cccc(C2=C(C(C)=O)Sc3nnc(C4CCCCC4)n3N2C(C)=O)c1 -11.3%
CCOc1ccc(CN(C(=O)c2nc(SC)ncc2Cl)C2CCS(=O)(=O)C2)cc1 (configuration not stated) -18.7%
CC1CCCCN1CCCNC(=O)c1ccc2c(c1)sc1nc(-c3ccc(F)cc3)cn12 (configuration not stated) -12.7%
CCc1ccc(Oc2c(C(F)(F)F)oc3c(CN4CCN(CC)CC4)c(O)ccc3c2=O)cc1 -12.2%
O=C(Nc1nc2ccc(S(=O)(=O)N3CCCC3)cc2s1)c1ccc(F)cc1 -8.64%
Cc1ccc2cc3cc(C(=O)N4CCN(c5ccccc5)CC4)oc3nc2c1 -6.99%
Cc1cc(C)cc(NC(=O)C(=O)NCCCN2CCOCC2)c1 -14.7%
O=c1c(N2CCN(c3cccc(Cl)c3)CC2)csc2ccccc12 -15.8%
CCc1nn(CC(=O)NCc2ccccc2Cl)c(=O)c2cc3ccccc3n12 -17.9%
COc1ccc(-c2nc3nc(C)cc(N4CCN(c5cccc(C(F)(F)F)c5)CC4)n3n2)cc1 0.691%
COCCCNC(=O)c1ccc(Cn2c(=O)c3ccccc3n(CC(=O)Nc3ccc(C)cc3C)c2=O)cc1 5.44%
CCOC(=O)N1CCc2c(sc3c2c(=O)n(-c2ccc(Cl)cc2)c(=O)n3Cc2cccc(OC)c2)C1 -10%
CCOC(=O)c1noc2ncnc(N3CCN(c4cccc(Cl)c4)CC3)c12 -17.9%
Cc1cccc2c1-c1sc(C(=O)NCc3ccc(Cl)cc3)cc1CO2 -14.5%
Cc1cccc(N2CC(c3nc4ccccc4n3CCC3CCCCC3)CC2=O)c1 (configuration not stated) -36.7%
CCc1ccc(S(=O)(=O)c2nnn3c2nc(Nc2cc(OC)cc(OC)c2)c2cc(Cl)ccc23)cc1 -8.1%
CCN(Cc1ccccc1)C(=O)c1cc2c(=O)oc3ccc(C)cc3c2s1 -15%
Cc1ccc(-c2nc(S(=O)(=O)c3ccc(C)cc3)c(SCC(=O)Nc3ccc(F)cc3)o2)cc1 -2.89%
COc1ccc(CCNC(=O)c2cc3c(s2)-c2c(C)cccc2OC3)c(OC)c1 -7.98%
CCOc1ccc(C(=O)Nc2ccccc2C(=O)OCc2cc(=O)n3nc(C4CC4)sc3n2)cc1 -5.74%
Cc1cc(C)cc(NC(=O)Cn2nnc(C(=O)NCc3ccccc3Cl)c2N)c1 -21.5%
COc1ccc(NC(=O)Nc2cccc(OCc3cc(=O)n4cccc(C)c4n3)c2)c(OC)c1 -0.946%
CN1C(C(=O)c2ccccc2)=C(NC(=O)c2ccccc2Br)c2ccccc2S1(=O)=O -9.62%
COCCn1c(C)cc(O)c(C(c2ccc(Cl)cc2)N2CCN(c3ccccc3)CC2)c1=O (configuration not stated) -8.21%
CCCCCSc1nnc2c(n1)OC(CC)Nc1ccc(Br)cc1-2 (configuration not stated) -45.9%
COc1cc(C2N=C(N)Nc3nc4ccccc4n32)ccc1OCC(=O)O (configuration not stated) -10.7%
COc1ccc(-c2cc(C(C)=O)c(C)n2CCC(=O)Nc2ccc(C)cc2Cl)cc1 2.96%
Cc1cc(C)cc(Nc2nc3ccccc3n3cnnc23)c1 -6.2%
CCc1ccc(NC(=O)Cc2csc(COc3cccc(C)c3)n2)cc1 6.25%
O=c1n(Cc2ccc(Cl)cc2)c2ccccc2c2nc(-c3ccccc3)nn12 8.31%
Cc1nc2ccc(S(=O)(=O)NC(C(=O)N3CCN(c4ccc(Cl)cc4)CC3)C(C)C)cc2s1 (configuration not stated) -10.4%
O=S(=O)(c1ccc2[nH]c3c(c2c1)CCCC3)N1CCN(c2cccc(C(F)(F)F)c2)CC1 -0.528%
CCn1c(=O)cc(SCC(=O)NCCc2cccc(C)c2)c2ccccc21 -5.22%
CCC(=O)N1CCc2cc(Br)cc(S(=O)(=O)CCC(=O)N3CCN(c4ccc(OC)cc4)CC3)c21 -29.3%
CCC(C(=O)Nc1cc(OC)ccc1OC)n1c(=O)c(C(F)(F)F)nc2ccccc21 (configuration not stated) -15.3%
CCOc1ccc2oc(=O)cc(CN3CCN(Cc4ccc(F)cc4)CC3)c2c1 -1.18%
O=C(CCCn1c(=O)c2ccccc2n(CC(=O)Nc2cccc(Cl)c2)c1=O)NCc1ccc2c(c1)OCO2 -7.78%
COc1ccc(C(=O)NCC(c2ccc(N(C)C)cc2)N2CCCC2)cc1 (configuration not stated) -6.26%
Cc1cc(C)cc(-n2ccnc2SCC(=O)Nc2ccc(C)cc2C)c1 -26.6%
CC(=O)c1ccc(N2CCN(c3nc4c(S(=O)(=O)c5ccc(C)c(C)c5)nnn4c4ccc(Cl)cc34)CC2)cc1 -13.5%
CCC(=O)Nc1ccccc1-c1nc2ccccc2n(C(C)C(=O)Nc2cccc(Cl)c2C)c1=O (configuration not stated) -13.6%
COc1cc(NC(=O)CNC(=O)Cn2ccc3ccccc3c2=O)cc(OC)c1OC 6.08%
CC(C)c1ccc(Nc2ncnc3c2nc2n3CCCC2)cc1 -16.3%
CC(=O)[C@H]1CC[C@H]2[C@@H]3CC=C4C[C@@H](O)CC[C@]4(C)[C@H]3CC[C@]12C -11%
O=C(CSc1nc2c([nH]c3ccccc32)c(=O)n1-c1ccc(Cl)cc1)NC1CCCCC1 10.6%
CCN(CC)C(=O)CN1C(=O)COc2ccc(S(=O)(=O)N3CCOCC3)cc21 -11.4%
CCCCNC(=O)Nc1ccc2c(c1)N(C)C(=O)c1ccccc1S2 11.5%
CCc1ccc(NC(=O)N2CCN(Cc3nc4ccc(C)cc4o3)CC2)cc1 -12.2%
Cc1ccc(N2CCN(C(=O)c3cn(C)c4ccc(S(=O)(=O)N5CCCC5)cc4c3=O)CC2C)cc1 (configuration not stated) -24.8%
Cc1cc(Nc2cccc(Br)c2)n2c(nc3ccccc32)c1C#N -1.33%
CCOc1cc(C(Nc2cc(C)ccn2)c2ccc3cccnc3c2O)ccc1OC (configuration not stated) -19.8%
CC(=O)Nc1ccc(S(=O)(=O)NCC2CCC(C(=O)NCc3ccccc3)CC2)cc1 (configuration not stated) -5.59%
COc1ccccc1NC(=O)c1c(C)cc(C)nc1SCC(=O)Nc1ccc(C)cc1 -11.8%
COc1ccc(NC(=O)Cn2nnc(C(=O)NCc3ccco3)c2N)c(OC)c1 -15.9%
COc1cc(NC(=O)CSc2nc(-c3ccccc3)no2)cc(OC)c1 -24%
Cc1cc(C)cc(-n2c(SCC(=O)NCc3ccc(F)cc3)nc3c([nH]c4ccccc43)c2=O)c1 -23.3%
Cc1ccc2c(c1)c(=O)c1ccccc1n2CCCC(=O)Nc1ccc(Cl)c(Cl)c1 -17.2%
CCOc1ccc(NC(=O)CN2C(=O)c3ccccc3Sc3ccc(C(=O)OC)cc32)cc1 -8.84%
O=C(C1CCC(Cn2c(=O)c3sccc3n(Cc3ccccc3F)c2=O)CC1)N1CCOCC1 (configuration not stated) -12.3%
CN(C)c1ccc(C(=C2C=CC(=[N+](C)C)C=C2)c2ccc(N(C)C)cc2)cc1 -16.8%
COc1cccc(NC(=O)CN2C(=O)CC(c3ccco3)Sc3ccccc32)c1 (configuration not stated) -5.07%
Cc1cccc(C)c1NC(=O)C(=O)NCC(c1cccnc1)N1CCc2ccccc21 (configuration not stated) -17.7%
COC(=O)c1sc(-c2ccccc2)cc1NC(=O)c1cccc(Cl)c1 -11.7%
CCOC(=O)c1c(NC(=O)c2ccc(S(=O)(=O)N(CC(C)C)CC(C)C)cc2)sc2c1CCN(CC)C2 -23%
O=C(Nc1nc(-c2ccccc2)ns1)c1ccc(Cl)cc1 -28.6%
Cc1cccc(NC(=O)C(NS(=O)(=O)c2cccc3nsnc23)c2ccccc2)c1C (configuration not stated) -10.9%
COc1ccc(CN(C(=O)c2cc(=O)c3ccccc3o2)C2CCS(=O)(=O)C2)cc1OC (configuration not stated) -8.37%
COc1ccccc1N1CCN(C(=O)c2ccc3c(c2)N(Cc2cc(C)ccc2C)C(=O)c2ccccc2S3(=O)=O)CC1 -4.66%
CCOC(=O)N1CCc2c(sc(NCc3cccs3)c2C(=O)Nc2cc(Cl)ccc2OC)C1 -6.12%
CC(C(=O)O)c1ccc2c(c1)CC(=O)c1ccccc1S2 (configuration not stated) -13.1%
CCN(CC)c1ccc(NC(=O)C2CCN(S(=O)(=O)c3ccc4c(c3)oc(=O)n4C)CC2)c(C)c1 -1.85%
CCOC(=O)c1c(C)c(-c2ccccc2)n(CC(=O)NCc2ccccc2)c1C 0.0706%
O=C(OCC(COC(=O)c1cccnc1)(COC(=O)c1cccnc1)COC(=O)c1cccnc1)c1cccnc1 -20.6%
Cc1ccc(C(=O)NCC(c2ccco2)S(=O)(=O)c2ccccc2)cc1C (configuration not stated) -4.43%
COc1cc2c(=O)c(S(=O)(=O)c3ccc(C(C)C)cc3)cn(Cc3ccccc3C)c2cc1OC -8.65%
CCOC(=O)c1ccc(NS(=O)(=O)c2ccc3c(c2)CCN3C(=O)CC)cc1 -5.54%
COc1ccc(N2CCN(S(=O)(=O)c3cc(Br)cc4c3N(C(=O)C3CC3)CC4)CC2)cc1 -5.66%
